Source: article PMC5451543
Changes are numbered by the printed parent chain. No constants are given. Whether binding was seen depends on the method and setting. In cells and extracts the contact can be indirect. Some binding calls cover weakened binding; strength is not graded here. Sequences can lack the tags named with a protein. Each block holds one binder with its values, some of them ahead of it.

Sequences of proteins named here, by UniProt entry; tags and fusion partners are left off. A change or cut given only in a name is not applied to a line headed by its entry. Residues count along the entry.
UniProt O00487: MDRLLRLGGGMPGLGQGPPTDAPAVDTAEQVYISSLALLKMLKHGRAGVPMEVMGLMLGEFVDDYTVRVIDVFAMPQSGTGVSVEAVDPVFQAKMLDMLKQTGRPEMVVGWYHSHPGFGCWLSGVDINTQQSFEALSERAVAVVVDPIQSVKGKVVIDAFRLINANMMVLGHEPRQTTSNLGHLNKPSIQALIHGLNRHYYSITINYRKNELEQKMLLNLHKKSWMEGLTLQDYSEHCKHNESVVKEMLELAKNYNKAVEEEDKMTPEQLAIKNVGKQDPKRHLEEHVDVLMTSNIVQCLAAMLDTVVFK
UniProt Q13200: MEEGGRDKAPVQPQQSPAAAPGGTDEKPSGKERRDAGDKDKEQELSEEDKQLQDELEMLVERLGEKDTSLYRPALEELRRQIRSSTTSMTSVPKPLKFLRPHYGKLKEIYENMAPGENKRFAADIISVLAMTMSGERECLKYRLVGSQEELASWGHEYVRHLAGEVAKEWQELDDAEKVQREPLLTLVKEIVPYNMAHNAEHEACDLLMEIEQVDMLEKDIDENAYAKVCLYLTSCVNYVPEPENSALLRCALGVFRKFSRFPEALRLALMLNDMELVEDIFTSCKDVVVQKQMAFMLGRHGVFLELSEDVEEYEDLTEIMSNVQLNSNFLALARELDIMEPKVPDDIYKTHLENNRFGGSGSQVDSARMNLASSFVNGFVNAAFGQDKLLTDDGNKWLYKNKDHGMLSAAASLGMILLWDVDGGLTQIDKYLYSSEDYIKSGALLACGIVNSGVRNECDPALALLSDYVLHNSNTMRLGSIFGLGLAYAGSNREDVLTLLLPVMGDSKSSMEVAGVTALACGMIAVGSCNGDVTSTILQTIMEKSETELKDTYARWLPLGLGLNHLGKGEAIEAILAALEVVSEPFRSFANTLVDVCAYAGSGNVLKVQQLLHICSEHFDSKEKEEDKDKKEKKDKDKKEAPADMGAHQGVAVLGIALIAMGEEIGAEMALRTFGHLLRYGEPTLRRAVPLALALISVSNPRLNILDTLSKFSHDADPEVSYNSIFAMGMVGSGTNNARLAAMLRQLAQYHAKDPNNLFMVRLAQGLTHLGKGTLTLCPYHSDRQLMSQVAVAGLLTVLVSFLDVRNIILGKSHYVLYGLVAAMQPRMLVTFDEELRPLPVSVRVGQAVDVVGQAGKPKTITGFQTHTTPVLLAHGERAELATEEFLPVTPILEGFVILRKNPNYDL
FLAG-Rpn1 (aa 1–797): residues 1-797 of Q13200
FLAG-Rpn1 (aa 1–651): residues 1-651 of Q13200
FLAG-Rpn1 (aa 1–594): residues 1-594 of Q13200
FLAG-Rpn1 (aa 408–908): residues 408-908 of Q13200
FLAG-Rpn1 (aa 408–797): residues 408-797 of Q13200
FLAG-Rpn1 (aa 595–908): residues 595-908 of Q13200
FLAG-Rpn1 (aa 652–908): residues 652-908 of Q13200

Legend:
[1] = target: HTBH-tagged Rpn11, O00487; test: pull-down; streptavidin–agarose pull-down of HTBH-tagged Rpn11 from stable HEK293T cells co-transfected with FLAG-tagged subunits or chaperones and HA-UBLCP1 or HA-DDAA; western blot; conditions: remark: other sources report otherwise
HTBH-tagged Rpn11 = HTBH-tagged Rpn11 (UniProt O00487); test: as above
[2] = target: FLAG-Rpn1 (aa 1–594) (human) (UniProt Q13200); test: co-IP; HEK293T co-transfected with tagged proteins; FLAG lysis buffer (300 mM NaCl, 25 mM Tris–HCl pH 7.5, 2 mM EDTA, 1% Triton X-100); IP with anti-FLAG antibody, western blot; some panels with UBLCP1 knockout, siRpn1 or HA-Rpn1 overexpression
[3] = target: FLAG-Rpn1 (aa 652–908) (human) (UniProt Q13200); test: as above
[4] = target: FLAG-Rpn1 (aa 408–797) (human) (UniProt Q13200); test: as above
[5] = target: FLAG-Rpn1 (aa 1–651) (human) (UniProt Q13200); test: as above
[6] = target: FLAG-Rpn1 (aa 408–908) (human) (UniProt Q13200); test: as above
[7] = target: FLAG-Rpn1 (aa 595–908) (human) (UniProt Q13200); test: as above
[8] = target: FLAG-Rpn1 (aa 1–797) (human) (UniProt Q13200); test: as above
FLAG-Rpn1 (human) = FLAG-Rpn1 (human) (UniProt Q13200); test: as above
FLAG-PAAF1 (human) = FLAG-PAAF1 (human) (UniProt Q9BRP4); test: as above

binding (HTBH-tagged Rpn11): binds
B2: FLAG-p27 (protein, UniProt O00233 1-223)
chain: MSDEEARQSGGSSQAGVVTVSDVQELMRRKEEIEAQIKANYDVLESQKGIGMNEPLVDCEGYPRSDVDLYQVRTARHNIICLQNDHKAVMKQVEEALHQLHARDKEKQARDMAEAHKEAMSRKLGQSESQGPPRAFAKVNSISPGSPASIAGLQVDDEIVEFGSVNTQNFQSLHNIGSVVQHSEGKPLNVTVIRRGEKHQLRLVPTRWAGKGLLGCNIIPLQR

binding [2]: no binding
binding [3]: binds
binding [4]: no binding
binding [5]: no binding
binding [6]: binds
binding [7]: binds
binding [8]: no binding
binding (FLAG-Rpn1 (human)): binds
binding (FLAG-PAAF1 (human)): binds
B3: HA-UBLCP1 (protein, UniProt Q8WVY7 1-318)
chain: MALPIIVKWGGQEYSVTTLSEDDTVLDLKQFLKTLTGVLPERQKLLGLKVKGKPAENDVKLGALKLKPNTKIMMMGTREESLEDVLGPPPDNDDVVNDFDIEDEVVEVENREENLLKISRRVKEYKVEILNPPREGKKLLVLDVDYTLFDHRSCAETGVELMRPYLHEFLTSAYEDYDIVIWSATNMKWIEAKMKELGVSTNANYKITFMLDSAAMITVHTPRRGLIDVKPLGVIWGKFSEFYSKKNTIMFDDIGRNFLMNPQNGLKIRPFMKAHLNRDKDKELLKLTQYLKEIAKLDDFLDLNHKYWERYLSKKQGQ

More lines, now with the values behind:

B1: FLAG-PAAF1, Q9BRP4 1-392 (protein)
chain: MAAPLRIQSDWAQALRKDEGEAWLSCHPPGKPSLYGSLTCQGIGLDGIPEVTASEGFTVNEINKKSIHISCPKENASSKFLAPYTTFSRIHTKSITCLDISSRGGLGVSSSTDGTMKIWQASNGELRRVLEGHVFDVNCCRFFPSGLVVLSGGMDAQLKIWSAEDASCVVTFKGHKGGILDTAIVDRGRNVVSASRDGTARLWDCGRSACLGVLADCGSSINGVAVGAADNSINLGSPEQMPSEREVGTEAKMLLLAREDKKLQCLGLQSRQLVFLFIGSDAFNCCTFLSGFLLLAGTQDGNIYQLDVRSPRAPVQVIHRSGAPVLSLLSVRDGFIASQGDGSCFIVQQDLDYVTELTGADCDPVYKVATWEKQIYTCCRDGLVRRYQLSDL
binding [1]: binds

B4: HA-UBLCP1 DDAA (protein, UniProt Q8WVY7 1-318)
chain: B3 chain with D143A, D145A
binding (FLAG-Rpn1 (human)): binds
binding (FLAG-PAAF1 (human)): binds
